In paper PMC7819943, “Rice protein-binding microarrays: a tool to detect cis-acting elements near promoter regions in rice”:
This is one part of the list.

target: T1, OsWOX13 (Oryza sativa, UniProt Q5QMM3 1-267); assay: protein-binding microarray (RPBM); PBS, 2% BSA, 51.3 ng/ul salmon testes DNA, 50 uM zinc acetate, 200 nM TF, 25 C, 1 h; high values mean tight binding; details: protein: recombinant; tags: N-terminal polyhistidine and DsRed monomer fusion (pET32a); label: CyDye5-dUTP incorporated in the synthesized complementary strand; 3' TTTTT single-stranded linker to array surface; dsDNA, one strand shown
T1 sequence: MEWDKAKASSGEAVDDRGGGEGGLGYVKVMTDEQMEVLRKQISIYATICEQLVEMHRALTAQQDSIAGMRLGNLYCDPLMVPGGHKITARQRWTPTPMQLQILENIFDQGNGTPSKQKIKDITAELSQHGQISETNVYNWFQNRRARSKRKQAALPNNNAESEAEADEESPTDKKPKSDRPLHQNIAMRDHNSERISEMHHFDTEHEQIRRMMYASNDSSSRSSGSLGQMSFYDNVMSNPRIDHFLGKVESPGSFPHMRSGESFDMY
Summary of the method: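 Transcription factors were each fused at the N-terminus to a polyhistidine tag plus DsRed and expressed in E. coli BL21-CodonPlus before Ni–NTA purification. Binding to a double-stranded custom Agilent array was carried out with 200 nM protein at 25 °C for 1 h in PBS, 2% BSA, salmon testes DNA and 50 µM zinc acetate. The binding signal is per-feature fluorescence intensity, in arbitrary units, on an Axon 4000B scanner.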

Sequence | binding signal
CACTTACCATGATAATTTGAACAGTTCACACGCGCCGAGACGGAGTCACCTAGTGCAG | 5850 fluorescence intensity (a.u.)
ATTTAGATCTAATGAAACTAATTTGCTATTTTAGATGTTGCGGAGTCACCTAGTGCAG | 5750 fluorescence intensity (a.u.)
CTATAAATTTAACATATTGTGCTACGCTCAATATATCGTTCGGAGTCACCTAGTGCAG | 12300 fluorescence intensity (a.u.)
TCCTCGGCATAATTTCCCTCAAGGATTGGTACCAAGTCATCGGAGTCACCTAGTGCAG | 4010 fluorescence intensity (a.u.)
ACACATTTTGATTAAATGGAAATATCAGTAATAATGGTTACGGAGTCACCTAGTGCAG | 9200 fluorescence intensity (a.u.)
AACTTTGTTTTACTGCTAATTATAATCACCAGTAGAGAGACGGAGTCACCTAGTGCAG | 9950 fluorescence intensity (a.u.)
GAATAACTGCCAATCAAAGCTTTATCCTAATGAACTATTGCGGAGTCACCTAGTGCAG | 37500 fluorescence intensity (a.u.)
ATACATTGTGGATGACTGGTAACTATATTGAGGAAATAGTCGGAGTCACCTAGTGCAG | 3530 fluorescence intensity (a.u.)
CTCTAATTTGGCTGACAATACCTAGAACGACATACTTCGTCGGAGTCACCTAGTGCAG | 16900 fluorescence intensity (a.u.)
CCCCTTAATTCCATCTCATAGACAGCCAAAAGGGTCAAGACGGAGTCACCTAGTGCAG | 9070 fluorescence intensity (a.u.)
TTTGATGAATTTCATGCATTCCATCATGAGCAACTTCACCCGGAGTCACCTAGTGCAG | 7650 fluorescence intensity (a.u.)
CTTATTAGCACATGATTAATTAATTATTAACTATTATAAACGGAGTCACCTAGTGCAG | 19500 fluorescence intensity (a.u.)
ATTAAAACTCAATTAATTACATGTTATTACCATCTCGTTTCGGAGTCACCTAGTGCAG | 20800 fluorescence intensity (a.u.)
CTAATGACGAATTAATTAGAATTAATAGATTTATCTTGCACGGAGTCACCTAGTGCAG | 53300 fluorescence intensity (a.u.)
CCATGATTAGTCCTAAGTGCTACGGTAATCCACATGTGCTCGGAGTCACCTAGTGCAG | 45400 fluorescence intensity (a.u.)
GGAAGATAGATAGTGATTAGGTTTATAATACTTGGAGCAACGGAGTCACCTAGTGCAG | 31200 fluorescence intensity (a.u.)
ATGAATTTATTAAGCCTAATTAATCCGTCATTAGCATATGCGGAGTCACCTAGTGCAG | 7630 fluorescence intensity (a.u.)
GTGCAATCAGATCTGATTTAGATAAATAATTTAAGATAAACGGAGTCACCTAGTGCAG | 12900 fluorescence intensity (a.u.)
TTTGATTAGTCGTACTATCTTTCTAACGTGTGAGAATCATCGGAGTCACCTAGTGCAG | 23700 fluorescence intensity (a.u.)
ATCACCGAAATTTCTAAATCAATGGGAATTATGGCCGGCACGGAGTCACCTAGTGCAG | 5930 fluorescence intensity (a.u.)
TTTGAGATTTGTGTAAATTGAAAATAGAAAATCATAGCGCCGGAGTCACCTAGTGCAG | 18300 fluorescence intensity (a.u.)
CAGCTAGATTACTATATTTTGATTTAGATTCGTAGTACGACGGAGTCACCTAGTGCAG | 11900 fluorescence intensity (a.u.)
CCTTCTACAAGCTCATTTGATTGAAGAGGCTTGCATGTTGCGGAGTCACCTAGTGCAG | 5160 fluorescence intensity (a.u.)
TTTAATTAGCAGGCAGGAATTAAGAGGCAGCTAACAGTAGCGGAGTCACCTAGTGCAG | 17100 fluorescence intensity (a.u.)
ATCTTATTAATTAATTCTTTGTGTTTCATATTATTCTAATCGGAGTCACCTAGTGCAG | 17100 fluorescence intensity (a.u.)
ATGATATAACTGAAAAGTTGTGTGTGTATGACAGGTTGATCGGAGTCACCTAGTGCAG | 6470 fluorescence intensity (a.u.)
TTTACTTAACAAATGTTTGATTAGATCTTCAGTTTTATATCGGAGTCACCTAGTGCAG | 6130 fluorescence intensity (a.u.)

Sequence | binding signal
AAAATATCCAGTATTGTGATTGAGAGATACTACGAATTAGCGGAGTCACCTAGTGCAG | 6110 fluorescence intensity (a.u.)
CCGATAATTTAGAATAGTTTCTGTATCTGTTCATGGTAAACGGAGTCACCTAGTGCAG | 17800 fluorescence intensity (a.u.)
CCTAATTGCTTAGAGGACAAAGTTAGCTAGGCAGCTAGCTCGGAGTCACCTAGTGCAG | 16000 fluorescence intensity (a.u.)
GGCGATTACACGAACTAATCTATCATTATCTCTAGCCGTCCGGAGTCACCTAGTGCAG | 3880 fluorescence intensity (a.u.)
AACTTCTAATTTTAGTGTAAACTAAACAATTTCTGTCGAACGGAGTCACCTAGTGCAG | 4330 fluorescence intensity (a.u.)
TTGATGGATGGATGGATGGAGAGGGGCGTTGCCAAGTCCACGGAGTCACCTAGTGCAG | 9900 fluorescence intensity (a.u.)
TTATTATTGATAATTGATAATTTGGTAAATTGTTGATTTTCGGAGTCACCTAGTGCAG | 30000 fluorescence intensity (a.u.)
CTAAACTGATCTGAAATGTTCGACAGGATATATACAGGGGCGGAGTCACCTAGTGCAG | 11800 fluorescence intensity (a.u.)
AATCAATCACGCATGAGCACATGGCATCAACTTCACATAACGGAGTCACCTAGTGCAG | 18700 fluorescence intensity (a.u.)
GAGTACTTAATTAATCACGTGCTAATAGACCACTCTGTTTCGGAGTCACCTAGTGCAG | 28100 fluorescence intensity (a.u.)
ACATGTGGATTTGACAAATTTAGGATCTGTAAATATTGAACGGAGTCACCTAGTGCAG | 3360 fluorescence intensity (a.u.)
AAAATATAATTGGGTATAAACCCGTCGATACGTACGTACCCGGAGTCACCTAGTGCAG | 5280 fluorescence intensity (a.u.)
CATCAAAATTTTCTTAGACATAACTTTCCACTTTTCTGTCCGGAGTCACCTAGTGCAG | 3310 fluorescence intensity (a.u.)
TCGTTAATGAGCCTCAAATTGTTGATTTAACACAGTGCTTCGGAGTCACCTAGTGCAG | 22600 fluorescence intensity (a.u.)
GTACACAAAATTTATATTTTAGATTGCTTATTTTGGAAAACGGAGTCACCTAGTGCAG | 8220 fluorescence intensity (a.u.)
GCCTTAATTAATAATGTTTAACCACTATAGATTTATTTTCCGGAGTCACCTAGTGCAG | 30800 fluorescence intensity (a.u.)
GGCCGGTTGATTGTGTGGTTGGTGAGGGCGCGAGCTCTGCCGGAGTCACCTAGTGCAG | 10600 fluorescence intensity (a.u.)
CAAATTTTGAAAAGATTTATTTTGACAATAATCTGAGTATCGGAGTCACCTAGTGCAG | 3590 fluorescence intensity (a.u.)
TGTGATTATGATACTGTGCACGATGAGGCACCCCTGGTGGCGGAGTCACCTAGTGCAG | 41700 fluorescence intensity (a.u.)
GAATGAGAAAATTTGAGTCTAATTTAGCAGGCAGAACTAACGGAGTCACCTAGTGCAG | 3490 fluorescence intensity (a.u.)
AGATAATTAAGTATTTTACGTAAAATAAGATAGTATTAATCGGAGTCACCTAGTGCAG | 5240 fluorescence intensity (a.u.)
ATAATGAATAGATTACCACATGCTATGGCTATGCATGTACCGGAGTCACCTAGTGCAG | 16200 fluorescence intensity (a.u.)
ATTATTTGTGATTAAGAGGTAGATCATAATACGGGTGGTTCGGAGTCACCTAGTGCAG | 6260 fluorescence intensity (a.u.)
TAGGCTTAATTACTATATACTTGCATGTTGAGTTTTGTGTCGGAGTCACCTAGTGCAG | 15700 fluorescence intensity (a.u.)
CACAGATTGCGTGTAAATTGTGAGACGAATCTTTTAAGCCCGGAGTCACCTAGTGCAG | 29700 fluorescence intensity (a.u.)
ATGATGAAAATTCATGACAACTCAAAACCAGTATTCGTTGCGGAGTCACCTAGTGCAG | 3550 fluorescence intensity (a.u.)
ACCGTACGATCAAACCAATCAACTCACCGCGGTGAGAAGGCGGAGTCACCTAGTGCAG | 4650 fluorescence intensity (a.u.)
